Results taken from publication PMC6919601, “Identification of Plasmodium dipeptidyl aminopeptidase allosteric inhibitors by high throughput screening” (PLoS ONE, 2019).
Values joined by “and” are separate entries in the source; they are usually repeats but may differ in a detail not shown here. Identical values can stand only once. Out of some 110,000 compounds screened, about 230 (0.21%) showed an effect of 50% or more. Some of the results follow.

target: DPAP1 (Plasmodium falciparum, UniProt Q8IIJ9); experiment: primary screen, percent inhibition; read by cleavage of a fluorogenic dipeptide substrate; higher = more effect of the substance; set-up: species or system P. falciparum D10 trophozoite lysates; single well
Sequence (Q8IIJ9 whole entry, looked up): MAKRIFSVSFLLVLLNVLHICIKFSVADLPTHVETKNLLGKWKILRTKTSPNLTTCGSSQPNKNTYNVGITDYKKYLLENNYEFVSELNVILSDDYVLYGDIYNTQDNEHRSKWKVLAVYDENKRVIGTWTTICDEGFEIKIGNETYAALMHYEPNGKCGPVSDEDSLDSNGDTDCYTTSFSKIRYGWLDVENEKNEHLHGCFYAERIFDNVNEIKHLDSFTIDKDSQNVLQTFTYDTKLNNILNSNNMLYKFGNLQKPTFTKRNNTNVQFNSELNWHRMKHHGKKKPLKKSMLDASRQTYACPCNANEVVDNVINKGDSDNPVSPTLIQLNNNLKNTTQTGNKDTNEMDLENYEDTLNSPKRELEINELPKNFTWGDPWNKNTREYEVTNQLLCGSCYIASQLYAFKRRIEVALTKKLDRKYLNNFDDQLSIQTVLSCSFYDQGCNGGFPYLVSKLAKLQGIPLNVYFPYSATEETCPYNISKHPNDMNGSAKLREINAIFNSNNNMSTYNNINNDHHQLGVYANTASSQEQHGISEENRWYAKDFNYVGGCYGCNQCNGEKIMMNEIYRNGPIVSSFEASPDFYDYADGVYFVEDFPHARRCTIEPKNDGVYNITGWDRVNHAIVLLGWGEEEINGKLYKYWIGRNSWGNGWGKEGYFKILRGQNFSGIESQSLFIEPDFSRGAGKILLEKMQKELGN
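Further: 30 min substrate incubation versus DMSO and 10 µM JCP410 controls.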

Structure (SMILES) | % Inhibition @ 10 uM
COc1ccc(/C=C/C(=O)N2CCN=C2c2ccccc2)cc1OC | -1.52%
COCCNC(=O)C1CCCN(c2nn3cc(-c4ccc(C)cc4)nc3s2)C1 (centres unmarked) | -1.95%
Cn1c2ccccc2c2c(C(=O)NCCc3ccc(Cl)cc3)cn(C3CCCC3)c(=O)c21 | 1.85%
O[S+](N1CCCCCC1)C12CC3CC(CC(C3)C1)C2 (centres unmarked) | -2.48%
CCOc1ccc(CCNC2=NS(=O)(=O)C(c3ccc(C(C)C)cc3)=C2C)cc1 | 3.87%
CCNc1nc(-c2ccccc2)cs1 | 89.1%
CCN1CCC(NCc2cccc(Br)c2)CC1 | -1.5%
O=C(CN1Cc2ccccc2C1=O)NCCC1=CCCCC1 | 0.264%
COc1cc(C(=O)Nc2ccc(S(=O)(=O)NC(C)=O)cc2)cc(OC)c1OC | 0.316%
COCCNC(=O)c1cnn2c(O)cc(C3CCN(C(=O)OC(C)(C)C)CC3)nc12 | -2.83%
O=C(Nc1ccc(-c2ccc(NC(=O)c3ccncc3)cc2)cc1)c1ccncc1 | -2.98%
Nc1ccc(Oc2ccc(S(=O)(=O)c3ccc(Oc4ccc(N)cc4)cc3)cc2)cc1 | 3.47%
COc1cc(OC)c2c(c1)O[C@@H](c1ccc(OC)c(OC)c1)[C@H](O)C2 | 0.5%
CCc1ccc(-c2cc3c(=O)n(CC(=O)NC4CCCC(C)C4C)nc(C)n3n2)cc1 (centres unmarked) | 0.623%
COc1ccc(OC)c(C2CCN(S(=O)(=O)c3csc(C(N)=O)c3)C2)c1 (centres unmarked) | -7.46%
O=C(Cc1ccc(F)cc1F)Nc1cccc2ccccc12 | -3.42%
CC1(c2ccccc2)CC(C)(C)N(C(N)=O)c2ccccc21 (centres unmarked) | 3.01%
CCc1ccc(S(=O)(=O)c2nnn3c2nc(NC2CCCCC2)c2sccc23)cc1 | -1.97%
O=C(NC1CCS(=O)(=O)C1)c1cccc(S(=O)(=O)N2CCOCC2)c1 (centres unmarked) | 5.37%
COc1ccc(S(=O)(=O)Nc2ncccn2)cc1 | 0.736%
COc1cccc(-c2nc(SCC(=O)Nc3ccc(Cl)cc3)nc(O)c2C#N)c1 | 2.46%
CC(CNC(=O)C1CCN(c2nc3ccccc3n3cccc23)CC1)c1ccccc1 (centres unmarked) | 0.658%
CCOC(=O)C1CCCN(Cc2ccccc2Cl)C1 (centres unmarked) | -3.56%
Cc1cc(-c2ccc(C)c(S(=O)(=O)N(Cc3ccco3)C3CCCC3)c2)on1 | -3.61%
CN(Cc1ccccc1)S(=O)(=O)c1nnc(NC(=O)C23C[C@H]4C[C@@H](C2)C[C@@H](C3)C4)s1 | -3.42%

Structure (SMILES) | % Inhibition @ 10 uM
Cc1ccc(C(=O)N/C(=C/c2cccnc2)C(=O)Nc2ccc(Cl)cc2)cc1 | 2.92%
O=C(CSc1nc2ccsc2c(=O)n1Cc1ccc(C(=O)O)cc1)NCc1ccco1 | 6.35%
CCC1CCC(C(=O)NC(C(=O)NCc2cccnc2)C(C)C)CC1 (centres unmarked) | -4.06%
COc1ccc(C)cc1N(CC(=O)Nc1ccc(C)c(C)c1)S(C)(=O)=O | -3.28%
Cc1ccc(CC2CC(=O)N(CC(=O)O)C2=O)cc1 (centres unmarked) | -5.07%
Cc1cc(C)c2c(n1)sc1c3c(c(O)nc12)C(c1ccccc1)C(C#N)=C(N)O3 (centres unmarked) | -6.18%
CCOc1ccccc1C(=O)Nc1ccc(Br)cc1 | -4.59%
O=C1C2CCCCC2C(=O)N1c1ccc(S(=O)(=O)Nc2ncccn2)cc1 (centres unmarked) | -4.76%
CC(=O)Nc1ccc(S(=O)(=O)Nc2ccc(C)c(Br)c2)cc1 | -13.3%
COc1ccc(-c2c(C(F)(F)F)oc3c(CN(C)C)c(O)ccc3c2=O)cc1 | -3.12%
O=C(c1ccc(Br)cc1)c1cc2ccc(O)cc2oc1=O | 5.32%
CCOC(=O)c1cnn(CCOC(=O)c2ccco2)c1NC(=O)c1ccco1 | -6.52%
CCOc1ccc(C2CC(=O)N3CN(Cc4cccnc4)CSC3=C2C#N)cc1 (centres unmarked) | 56%
O=C1C(=Cc2cc([N+](=O)[O-])ccc2O)C(=O)c2ccccc21 | 2.6%
Cc1nnc(NC(=O)CSc2ccc(-c3cccs3)nn2)s1 | 4.84%
NC(=S)c1cc2cc([N+](=O)[O-])ccc2oc1=O | 0.132%
O=C(Cc1c(Cl)cccc1Cl)N1CCN(c2ccccc2)CC1 | 1.39%
CCc1cc2c(cc3c(=O)n(CC(=O)NCCN4CCOCC4)ncn32)s1 | 1.68%
Oc1ccc(C2=NNc3nc4ccccc4nc3O2)cc1 | -7.17%
Cn1c(=O)c2nc(-c3ccccc3)c(=O)n(C)c2n(C)c1=O | -7.32%
Cc1ncc(CO)c2c1Oc1nc(-c3cccc(Cl)c3)nc(SCC(=O)N3CCCCC3)c1C2 | 5.85%
COc1ccc(S(=O)(=O)N2CCC(C(=O)NC3CC3)CC2)cc1 | 4.74%
Cc1oc(-c2ccc(C(=O)NCCN3CCCC3)cc2)nc1CSc1ccc(Cl)cc1 | 0.0882%
O=C(O)C1C2C=CC3(CN(CCCN4CCOCC4)C(=O)C13)O2 (centres unmarked) | 0.708%
COc1ccc(C(=O)NCCN2CCCC2)cc1 | 3.53%

Structure (SMILES) | % Inhibition @ 10 uM
COc1cccc([C@@H]2[C@H]3CCCC[C@]3(O)CCN2C(C)=O)c1 | 2.7%
CCCCOc1ccc(C2C(C(=O)OCCOC)=C(C)N=C3SCCC(=O)N32)cc1OC (centres unmarked) | -4.85%
CC1CC(=O)C2=C(C1)OC(N)=C(C#N)C2c1ccc(Br)o1 (centres unmarked) | -2.56%
Cn1ncc(Cl)c1C(=O)N1CCCc2ccccc21 | 2.01%
CCOC(=O)c1c(C)[nH]c(C)c1S(=O)(=O)NCC(=O)NCc1ccc(F)cc1 | -5.31%
Cc1nn2c(O)c3c(nc2c1-c1cccc2ccccc12)CCCC3 | 2.65%
O=C(Cn1ccc2cc(S(=O)(=O)N3CCCCC3)ccc21)NCc1cccnc1 | -4.27%
Cc1cccc(N2C(N)=C(C#N)C(c3cccnc3)C3=C2CCCC3=O)c1 (centres unmarked) | 4.01%
CC(NC(=O)CN(c1ccccc1Cl)S(=O)(=O)c1ccccc1)c1ccccc1 (centres unmarked) | -4.62%
COc1ccc(C(=O)Nc2ccc(S(=O)(=O)Nc3nc(C)cc(C)n3)cc2)cc1Br | -5.92%
CCC1CCc2c(sc(NC(=O)c3ccoc3C)c2C(N)=O)C1 (centres unmarked) | 6.81%
O=C(CCN1CCCCC1)c1ccc(Cl)cc1 | 2.13%
O=C(CCCC1CCCCC1)N[C@@H](CCc1ccccc1)C(=O)c1nc2ccccc2o1 | -6.98%
CCN1CCN(Cc2ccc(Cl)c(Cl)c2)CC1 | 1.48%
Clc1cccc(Nc2nc3c(s2)CCCC3)c1 | 19.1%
CC1(C)N=C(c2ccccc2)C(=O)N1 | 3.5%
CC(C)(C)NS(=O)(=O)c1ccc(NC(=O)COc2ccc(Br)cc2)cc1 | -6.08%
CC(C)c1ccc(-n2nnc(-c3nc(-c4ccncc4)no3)c2N)cc1 | -1.87%
CCCOCC1O[C@@H]2OC(C)(C)O[C@@H]2[C@H]2OC(C)(C)O[C@@H]12 (some centres unmarked) | -2.97%
Cn1c(C(=O)NCc2ccccc2)cc(=O)n(C)c1=O | -0.403%
COCCCn1c(=O)c2sccc2n2c(CCCC(=O)NCc3ccc4c(c3)OCO4)nnc12 | -1.87%
Cn1c(=O)c2c(nc(Cl)n2Cc2cccc(C(F)(F)F)c2)n(C)c1=O | 7.93%
C(=C\c1ccc2c(c1)OCO2)/c1ccncc1 | 2.4% and 4.04%
CC(C)(CO)NCc1ccccc1OCc1ccc(Cl)cc1 | -2.82%
Cc1ccc(S(=O)(=O)NCCOc2ccccc2Cl)cc1[N+](=O)[O-] | -6.82%

Structure (SMILES) | % Inhibition @ 10 uM
N#CCNC(=O)C(CC(=O)N1CCOCC1)CS(=O)(=O)Cc1ccccc1 (centres unmarked) | -1.83%
COc1ccc(-n2ncc(C(=O)N3CCCCC3)c2C2CCNCC2)cc1 | -4.61%
Cn1cc(CCCC(=O)NCCC2=CCCCC2)c2ccccc21 | -1.34%
Cc1cc(C)c(C)c(OCCCCCN2CCCC2)c1 | -3.94%
CC(C)Oc1ccc(C(=O)NC2CCCCC2)cc1 | 5.03%
Cc1nc2c(-c3ccccc3)c(C)nn2c(C)c1CC(=O)NC1CCCC1 | 0.953%
O=S(=O)(c1ccccc1)n1ccc2c(Cl)ccnc21 | -2.8%
CN1CCN(C(=O)c2ccc(S(=O)(=O)N3CCOCC3)cc2)CC1 | -1.85%
Cc1cc(OC(C)C(=O)Nc2ccc(S(=O)(=O)Nc3nccs3)cc2)cc(C)c1Cl (centres unmarked) | -1.96%
CC(=O)c1c(O)cc(C)o/c1=N\c1cccc(C)c1 | -6.35%
CC(C)(CO)NC(=O)C12CC3CC(CC(C3)C1)C2 | -2.48%
Cc1ccccc1NS(=O)(=O)c1ccc(Sc2ccc(S(=O)(=O)Nc3ccccc3C)cc2)cc1 | 4.08%
CN(CC(=O)N1CCN(Cc2ccccc2)CC1)S(=O)(=O)c1ccc2[nH]c3c(c2c1)CCCC3 | -0.878%
CC1CC(=O)C2=C(C1)OC(N)=C(C#N)C2c1c[nH]c2ccccc12 (centres unmarked) | -5.61%
Cc1ccc(-n2ncc3c(N(C)Cc4ccccc4)ncnc32)c(C)c1 | 0.593%
Cc1ccc(-n2ncc3c2ncn2nc(COc4ccccc4C)nc32)cc1C | 2.19%
CC(NS(=O)(=O)c1ccc(CCC(=O)NC2CCCCC2)cc1)c1ccccc1 (centres unmarked) | 0.161%
CCOc1cc(C2C(C(=O)OC)=CN(C3CC3)C=C2C(=O)OC)ccc1O | 1.96%
CC(C)OCCCNC(=O)c1ccc2c(c1)sc1nc(-c3ccccc3)cn12 | 10%
Cc1ccccc1N1CCN(C(=O)c2ccccc2N)CC1 | 1.94%
COc1cccc(C2=NS(=O)(=O)N(C)C(C(=O)NC3CCCC3)=C2)c1 | 2.32%
Cc1cccc(C)c1N1C(=O)C2C3C=CC(C3)C2(C)C1=O (centres unmarked) | 1.34%
CS(=O)(=O)N1CCC(C(=O)N2CCN(Cc3ccc4c(c3)OCO4)CC2)CC1 | 5.66%
